# Measured values published in PubChem BioAssay AID485344 (National Center for Advancing Translational Sciences (NCATS), 2010).
# Among all 340,000 compounds or so, about 6,900 (2%) were called active. No stated cut-off is given here; in the data, active means inhibition above about 30%; inactive means below that, where a call was filed. The entries are a selection whose mix differs from that of the whole data set. Where no call is shown, the source filed none.
# Target: D(2) dopamine receptor (Homo sapiens) (UniProt P14416)
# Sequence of UniProt P14416 (P14416 whole entry, looked up): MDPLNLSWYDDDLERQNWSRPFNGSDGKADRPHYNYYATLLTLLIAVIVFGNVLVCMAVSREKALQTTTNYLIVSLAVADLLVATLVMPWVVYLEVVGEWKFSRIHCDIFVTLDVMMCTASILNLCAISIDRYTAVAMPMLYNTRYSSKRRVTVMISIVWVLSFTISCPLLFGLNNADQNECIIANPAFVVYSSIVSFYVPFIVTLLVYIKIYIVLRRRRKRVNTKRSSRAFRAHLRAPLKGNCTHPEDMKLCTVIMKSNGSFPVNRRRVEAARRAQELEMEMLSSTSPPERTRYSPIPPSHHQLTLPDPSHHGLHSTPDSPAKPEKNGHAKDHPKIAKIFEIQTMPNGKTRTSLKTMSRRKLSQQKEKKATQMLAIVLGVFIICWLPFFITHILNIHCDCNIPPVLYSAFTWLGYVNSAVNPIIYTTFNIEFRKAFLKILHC
# Assay: HTS Assay for Allosteric Antagonists of the Human D2 Dopamine Receptor: Primary Screen for Antagonists; further: 0% is about no effect
# Settings: HEK293 TREx D2 cells, calcium flux, dopamine EC80; at 10 µM; stronger effect = higher value
# How it was run: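 Calcium flux kinetic readout in an inducible HEK293 TREx D2 line plated overnight at 30 C. After 180 s compound exposure, an EC80 dopamine challenge follows with another 180 s kinetic read to detect antagonism.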
row,SMILES,inhibition
1,O=c1ccc(-c2ccccc2)nn1Cc1ccc(F)cc1Cl,20.5%
2,C=CCC1Cc2c(cccc2[N+](=O)[O-])C(CC=C)N1 (centres undefined),active: 36.1%
3,Cc1ccc(Cn2ccnc2SCC(=O)Nc2nc3ccccc3s2)cc1,-18%
4,NS(=O)(=O)c1ccc(NC(=O)C(=O)Nc2ccc3nc4n(c(=O)c3c2)CCCCC4)cc1,0.771%
5,Cc1cc(NC(=O)C2CCN(S(=O)(=O)c3cccc4nsnc34)CC2)ccc1Br,25.1%
6,Cc1cccc(C(=O)N2c3nc(-c4ccco4)nn3C3(CCCCC3)[C@@H]3CCCC[C@@H]32)c1,21.8%
7,Cc1cccc(-n2ncc3c(N4CCCC(C)C4)ncnc32)c1 (centres undefined),8.19%
8,C#CCOc1ccc(C2CC(=O)Nc3c2c(C)nn3-c2nc(C)cc(C)n2)cc1 (centres undefined),-3.08%
9,COc1cc2c(cc1OC)CN(Cc1ccc(C)cc1)CC2,active: 56.2%
10,CCc1ccc(C(=O)c2cn(CC(=O)Nc3ccc(OC)cc3)c3cc4c(cc3c2=O)OCO4)cc1,-14%
11,NC(=O)C1(N2CCCCC2)CCN(C(=O)Nc2ccc(F)cc2F)CC1,-0.144%
12,CCC1CN(S(=O)(=O)c2cc(-c3onc(C)c3C)ccc2C)c2cc(Cl)ccc2O1 (centres undefined),6.16%
13,O=C(Nc1cccc(CNCCc2c[nH]c3ccccc23)c1)c1ccccc1Cl,active: 72.4%
14,Clc1ccc(CN2C3=NCCCN3c3ccccc32)cc1Cl,active: 75.5%
15,CCOc1ccc(N=C2C(=O)Nc3ccc(C)c(Br)c32)cc1,active: 42.4%
16,CCOC(=O)N1CCC2(CC1)OC(=O)C(C)=C2C(=O)NCc1cccc(F)c1,6.7%
17,Cc1cccc(NC(=O)CN2C(=O)c3cccc4cccc2c34)c1C,2.12%
18,O=C(Nc1cccc(Cl)c1)NC1CC2CCC(C1)N2Cc1cccs1 (centres undefined),active: 73.4%
19,CCCN1CCN(c2ncnc3sc(C(=O)Nc4c(C)cc(C)cc4C)c(C)c23)CC1,22.1%
20,COc1cccc(NC(=O)CSc2nc(=O)n(Cc3ccncc3)c3c2CCC3)c1,19.1%
21,Cc1cc(C)c(Cn2c(C3CC(=O)N(c4ccc(F)cc4)C3)nc3ccccc32)c(C)c1 (centres undefined),-1.24%
22,CC(C)CCN(C(=O)Nc1ccccc1)C(C)c1cccs1 (centres undefined),14.1%
23,CC(C)OC(=O)c1c(-c2ccccc2)c(-c2ccccc2)nn(C)c1=O,20.3%
24,CCOC(=O)c1ccc(NC(=O)CCn2ccc(C)n2)cc1,-0.654%

row,SMILES,inhibition
1,CCn1c2ccccc2c2cc(/C=N/NC(=O)c3ccccc3C)ccc21,active: 36.2%
2,Cc1ccc(S(=O)(=O)C(CNC(=O)C(=O)NCc2ccccc2C)c2cccs2)cc1 (centres undefined),18.5%
3,COc1ccc(CCNC(=O)C2CCN(S(=O)(=O)c3c(C)noc3/C=C/c3ccc(C)cc3)CC2)cc1OC,22.4%
4,O=C(NCC(c1ccco1)N1CCCC1)c1cn(-c2ccccc2)nc1-c1ccc(F)cc1 (centres undefined),active: 75.9%
5,CNS(=O)(=O)c1cn(CC(=O)Nc2ccc(C(C)=O)cc2)cc1S(=O)(=O)NC,1.97%
6,CC(=O)N1CCc2cc(CNC(=O)c3ccccc3Br)ccc21,-5.34%
7,Cc1ccc(CN2CCN(C3CCN(C(=O)Nc4ccc(C)cc4Cl)CC3)C(=O)C2=O)cc1,25.2%
8,CCCCNS(=O)(=O)c1ccc(C)c(-c2nnc3c4ccccc4c(C)nn23)c1,7.19%
9,O=C(Nc1ccc(Br)cc1)c1ccc(F)c(S(=O)(=O)N2CCc3ccccc32)c1,-0.147%
10,O=C(NCc1cccs1)C1CCN(C(=O)N2CCOc3ccc(Cl)cc32)CC1,12.8%
11,CCN(Cc1ccccc1)C(=O)C1CCN(Cc2ccc(SC)cc2)CC1,active: 80.6%
12,CC(=O)N1CCc2cc(S(=O)(=O)NC(Cc3ccccc3)C(=O)NCc3ccc(C)cc3)ccc21 (centres undefined),5.64%
13,Cc1ccc(CN2CCN(C3CCNCC3)C(=O)C2=O)cc1,1.85%
14,COc1ccc(NC(=O)C2CCN(c3ccc(Sc4ccc(C)cc4)nn3)CC2)c(OC)c1,5.4%
15,O=C(Nc1nccs1)C1CCCN(S(=O)(=O)c2cccc3cccnc23)C1 (centres undefined),active: 39.2%
16,O=C(CSc1ccc(-c2ccccn2)nn1)Nc1ccc(F)cc1F,0.621%
17,Cc1ccc(S(=O)(=O)N2CCc3cc(C(=O)Nc4c(F)cccc4F)ccc32)cc1,-1.38%
18,CCC(C(=O)N1CCN(c2cc(C)ccc2C)CC1)n1nc(C)n2c(cc3occc32)c1=O (centres undefined),-4.89%
19,CCOC(=O)Cn1c(=O)n(C2CCCCC2)c2nc(-c3ccc(C(C)C)cc3)nc(C(N)=O)c21,-23.6%
20,Cc1ccc(NC(=O)c2nc(S(=O)(=O)Cc3ccccc3C)ncc2Cl)cc1C,active: 34.3%
21,COc1ccccc1NC(=O)CSC1=Nc2ccccc2C2=NC(CC(=O)NCc3ccccc3)C(=O)N12 (centres undefined),2.86%
22,CCOc1ccc(NC(=O)C2CCCN(c3nnc(C)c4c(C)n(-c5ccccc5)nc34)C2)cc1 (centres undefined),0.181%
23,COCCn1cc(C(=O)NCCCOC(C)C)c2c3ccccc3n(C)c2c1=O,15.3%
24,Cc1ccccc1C(=O)NC(=S)Nc1ccccc1C(F)(F)F,active: 50.4%

row,SMILES,inhibition
1,COc1ccc(CNC(=O)Cc2ccc(NC(=O)N3CCSc4ncccc43)cc2)cc1,3%
2,O=c1[nH]c(C2CCCN(S(=O)(=O)c3ccc(F)cc3)C2)nc2c1nnn2Cc1ccc(F)cc1 (centres undefined),active: 67.8%
3,CCOC(=O)c1noc2nc(C)n(Cc3cccc([N+](=O)[O-])c3)c(=O)c12,17.3%
4,Cc1nnc(SCC(=O)NCc2ccccc2Cl)c2nn(-c3ccccc3)c(C)c12,0.695%
5,CCc1nn(CC(=O)NC(C)CCc2ccccc2)c(=O)c2cc3c(OC)cccc3n12 (centres undefined),10.8%
6,CCc1ccc(-n2nc(C)c3c(C)cc(=O)n(CC(=O)Nc4ccc(F)cc4C)c32)cc1,-3.57%
7,Cc1ccc(CNC(=O)CCNS(=O)(=O)c2cccc3nsnc23)cc1,-0.431%
8,CCn1cc(C(=O)N(C)c2ccc(C(C)C)cc2)c2cc(OC)c(OC)cc2c1=O,-17.6%
9,Cc1c(CCC(=O)N2CCCCC2)c(=O)oc2cc3occ(C(C)(C)C)c3cc12,5.19%
10,Cc1ccc2nc(NC(=O)CSc3ncc(C(=O)Nc4ccc(F)cc4)c(=O)n3C)sc2c1,6.22%
11,COc1ccccc1N1CCN(C(=O)CN2C(=O)COc3ccc(S(=O)(=O)N4CCCC4)cc32)CC1,1.01%
12,CCOc1ccc(C2CC(=O)c3c([nH]c(C(=O)OC4CCC(C)CC4)c3C)C2)cc1 (centres undefined),-3.65%
13,CCc1nc(SCc2cc(=O)c3cc(C)ccc3[nH]2)n[nH]1,27.4%
14,CCc1cccc(NC(=O)CSc2nc3ccsc3c(=O)n2CC)c1,-7.95%
15,Cc1ccc(CNC(=O)Cn2c(=O)n(Cc3ccccc3)c(=O)c3sc4ccccc4c32)cc1,-10.6%
16,Cc1ccc(CN(Cc2cccn2-c2nnc(N3CCCC3=O)s2)C(=O)Nc2ccccc2C(F)(F)F)cc1,9.47%
17,COc1ccc(Nc2c3c(nc4ccc(NC(=O)/C=C/c5cccc(OC)c5OC)cc24)CCCC3)cc1OC,14.3%
18,CCOC(=O)c1cc(NC(=O)c2ccc(Cl)cc2)c(=O)n2c1oc1ccccc12,-4.31%
19,O=C(CN1C=NS(=O)(=O)c2ccc(C(F)(F)F)cc21)Nc1cccc(C(F)(F)F)c1,-6.79%
20,O=S(=O)(c1ccc(Cl)cc1)c1nc(-c2ccccc2)oc1N1CCN(c2ccccc2)CC1,7.11%
21,O=C(Nc1ccc(Br)cc1)c1cccc(C(=O)Nc2ccc(Br)cc2)c1,-10%
22,COc1ccccc1-c1ccc(/C=C2/C=C(CC(C)C)OC2=O)o1,active: 33.5%
23,COC(=O)c1ccccc1NC(=O)c1ccc2c(=O)n3c(nc2c1)CCCCC3,-0.96%
24,CCCN1CCN(c2cc3c(cc2F)c(=O)c(S(=O)(=O)c2ccc(Cl)cc2)cn3C)CC1,-6.24%

row,SMILES,inhibition
1,Cc1cc(C)c2sc(NC(=O)c3ccc(S(=O)(=O)N4CCOCC4)cc3)nc2c1,1.79%
2,COc1ccc(C(=O)NCC(c2ccc(N(C)C)cc2)N2CCc3ccccc32)cc1 (centres undefined),-7.58%
3,Cn1c(=O)n(C)c2cc(N3CCOCC3)c(NC(=O)c3c(F)cccc3F)cc21,17.4%
4,CC1CCCN(S(=O)(=O)c2ccc(S(=O)(=O)N3CCC4(CC3)OCCO4)cc2)C1 (centres undefined),active: 39.7%
5,COc1cc(OC)c(NC(=O)Nc2c(C)n(C)n(-c3ccccc3)c2=O)cc1Cl,-12.7%
6,O=C(NC1CC(=O)N(c2cccc(F)c2)C1)C(c1ccccc1)c1ccccc1 (centres undefined),-15.3%
7,Cc1cccc(C)c1NC(=O)CCCN1C(=O)CCn2nc(-c3cn(C)c4ccccc34)cc21,16.7%
8,Cc1cccc(Cn2nnc(C(=O)Nc3cc(C)ccc3C)c2N)c1,-1.85%
9,COc1cccc(NC(=O)C2CCN(c3nc4ccccc4nc3C(F)(F)F)CC2)c1,-4.71%
10,COc1ccc(Cl)cc1NC(=O)Cn1cnc2c1c(=O)n(C)c(=O)n2C,-4.33%
11,Cc1ccc(CNC(=O)CCCn2c(=O)c3ccccc3n(Cc3ccccc3C)c2=O)cc1,19.8%
12,CC(NC(=O)c1ccc2c(c1)N(Cc1ccc(Cl)cc1)C(=O)c1ccccc1S2=O)c1ccccc1 (centres undefined),-0.0662%
13,CC(C)NC(=O)C1CCCN(c2ncnc3c2nc2n3CCCCC2)C1 (centres undefined),-10%
14,Cc1cccc(Cn2cnc3c(cnn3-c3ccc(Cl)cc3)c2=O)c1,-8.43%
15,Cc1ccc(CN2CCN(C3CCN(C(=O)Nc4ccccc4C(F)(F)F)CC3)C(=O)C2=O)cc1,-10.8%
16,Cc1cc(C)c2oc(C(=O)Nc3ccc(S(=O)(=O)N4CCC(C)CC4)cc3)cc(=O)c2c1,0.0257%
17,CC(=O)NCCCC(=O)NNC1CC(=O)N(c2cccc(Cl)c2)C1=O (centres undefined),active: 37.1%
18,Cc1ccc(S(=O)(=O)n2nc(-c3ccco3)nc2NCc2ccccc2Cl)cc1,6.5%
19,CCn1c(=O)cc(OCC(=O)N2CCN(c3ccccc3OC)CC2)c2ccccc21,7.52%
20,CCn1cc2nc(SCC(=O)Nc3ccc(F)cc3F)n(Cc3ccccc3)c(=O)c2n1,active: 31.9%
21,Cn1c(CNC(=O)CSc2nc(-c3cccc(Cl)c3)nc3cc(=O)[nH]n23)nc2ccccc21,9.31%
22,Cc1cc(N2CCN(c3cccc(C)c3C)CC2)n2nc(C)c(-c3ccc(Cl)cc3)c2n1,15.2%
